Experimental data as given in PubChem BioAssay AID743279 (National Center for Advancing Translational Sciences (NCATS), 2014).
Out of some 360,000 compounds screened, about 17,000 (4.7%) were called active. The shares of active, inactive and inconclusive entries below differ from those in the screen. Cut-off read from the data, not from the text of the source: active = activity change below about -50%; inconclusive = mostly about -30% to -49%; inactive = weaker than that.

Assay: qHTS for Inhibitors of Inflammasome Signaling: IL-1-beta AlphaLISA Primary Screen
Conditions: THP-1 LPS/ATP IL-1B secretion, 16 h; at 57.5 µM, hits give low values
Outline: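 Secreted IL-1B measured by AlphaLISA bead assay after 16 h compound exposure of THP-1 cells; compounds (final up to 57.5 uM) added 1 h before LPS (250 ng/mL) and ATP (1.25 mM) stimulation; lower signal means less secretion.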
% is set by controls: 0 for no effect and ±100 for the full control effect.

Activity change, inconclusive:
Cc1ccc(C(=O)Cn2c(C)cc(C)c(C#N)c2=O)cc1 -31%
Cc1ccccc1CN1CCc2c(OCC(=O)N3CCCc4ccccc43)cccc2C1=O -37.9%
CC(CNC(=O)c1cccs1)c1ccc([N+](=O)[O-])cc1 (stereo not given) -42%
C/C=C(/C)C(=O)O[C@@H]1c2c(ccc3ccc(=O)oc23)OC(C)(C)[C@@H]1OC(=O)/C(C)=C\C -34.2%
CC1CC(C)CN(CCCNS(=O)(=O)c2ccc3c(c2)CCN3C(=O)C2CC2)C1 (stereo not given) -42.7%
COc1ccc(C(=S)N2CCN(c3cccc(Cl)c3)CC2)cc1 -35.4%
CCn1c(CCNC(=O)c2ccc(C)cc2)nnc1SCc1ccc(Cl)c(Cl)c1 -44.6%
Cc1cc(C)cc(NC(=O)N2CCc3ccccc3C2)c1 -43.6%
COc1ccc(/C(C)=N/Nc2nc(C)c(C(C)=O)s2)cc1 -49.7%
CCOC(=O)c1cc(=O)[nH]c2ccccc12 -38.3%
NC(=O)[C@@H]1CC2(CC(c3cccc(NC(=O)CC(c4ccccc4)c4ccccc4)c3)=NO2)CN1C(=O)COc1ccc(Cl)cc1 (stereo not given in full) -41%
CN(Cc1ccccc1)C(=O)COc1ccc(Br)cc1Cl -32.3%
CC(Oc1cccc(F)c1)C(=O)Nc1ccc(N2CCOCC2)cc1 (stereo not given) -33.5%
Cc1ccnc(NC(=O)CCCNC(=O)c2ccc(Cl)cc2)c1 -35.2%
S=C(Nc1ccc(Cl)cc1)Nc1cccc2cnccc12 -31.3%
COc1ccc(-c2ccc(=O)n(Cc3cccc([N+](=O)[O-])c3)n2)cc1 -33.4%
CCOC(=O)c1cn2nc(-c3ccc(OC)cc3)cc2nc1C1CCN(C(=O)OC(C)(C)C)CC1 -34.4%
O=C(N/N=C/c1c(-c2ccccc2)[nH]c2ccccc12)c1cccnc1 -36.4%
CCC(c1nnnn1-c1ccc(OC)cc1)N1CCN(C/C=C/c2ccccc2)CC1 (stereo not given) -35.9%
Cc1cc(C)n2nc(SCc3ccccc3)nc2n1 -45.2%
CCOC(=O)c1c(C)[nH]c(C)c1C(=O)COC(=O)/C=C/c1ccccc1[N+](=O)[O-] -38.3%
CCN(CC)S(=O)(=O)c1ccc2oc(C(=O)NCc3ccc(F)cc3)c(C)c2c1 -36.6%
O=C(C1CCC1)N1CCC(c2nc3c(nnn3Cc3c(F)cccc3Cl)c(=O)[nH]2)CC1 -40.5%
COc1ccc(S(=O)(=O)N2CCN(Cc3cccc([N+](=O)[O-])c3)CC2)cc1 -48.3%
CCN1CCSc2ccc(C(=O)NCc3ccccc3C)cc21 -30%
Cc1ccc(OCCCCN2CCc3ccccc3C2)cc1 -46.2%
CC1CCCCN1S(=O)(=O)c1ccc(NC(=O)c2cccs2)cc1 (stereo not given) -31.3%
COc1ccc(-c2nc3c4ccccc4ccn3c2CN2CCOCC2)cc1OC -34.2%
COc1ccc(/C=N/OCC(=O)N2CC3(C)CC2CC(C)(C)C3)cc1 (stereo not given) -30.7%
O=C(NCc1ccco1)c1sc2cc(Cl)ccc2c1Cl -40.8%
COc1ccc(NC(=O)CSc2nnc(-c3ccco3)c(-c3ccco3)n2)cc1OC -34.2%
O=C(NCCO)c1cccc(-c2cnc3c(Nc4cccc(OC(F)(F)C(F)F)c4)nccn23)c1 -35.2%
O=C(NCCCN1CCOCC1)/C(=C/c1ccc(-c2cccc([N+](=O)[O-])c2)o1)NC(=O)c1ccccc1 -30.5%
O=C(CCn1nc(-c2ccccc2)c2ccccc2c1=O)N1CCN(c2ccccc2)CC1 -43.3%
COc1ccc(C(=O)CSc2nnc(Cn3cnc4ccccc43)o2)cc1 -43.4%
CCCCc1ccc(N2C(=NC(=O)C3CCCO3)SC3CS(=O)(=O)CC32)cc1 (stereo not given) -32.6%
CN1CCN(NC(=O)Nc2cc(Cl)cc(Cl)c2)CC1 -41.4%
COc1ccc(-n2c(-c3ccccc3)c[n+]3c2CCC3)cc1 -33.5%
COC(=O)[C@]12CCCCC=C1N(CCc1ccc(OC)c(OC)c1)C(=O)[C@H](CC(=O)N1CCN(C(=O)c3ccco3)CC1)C2 -47.7%
O=C(c1ccco1)N1CCN(C(=O)c2cnn(-c3ccc(F)cc3)c2-n2cccc2)CC1 -33.4%
O=C(NC1CCCCC1)N1CCN(c2ccc([N+](=O)[O-])cc2)CC1 -45.4%
Cc1cc(-c2nnc(-c3ccccc3)c(-c3ccccc3)n2)c(C)o1 -38.2%
CCc1nc2c(OCCc3cccc(OC)c3)cccn2c1N(C=O)Cc1ccccc1 -33.4%
COc1ccc(-c2csc3nc[nH]c(=O)c23)cc1 -40%
CCOCCCNC(=O)CN1C(=O)COc2ccc(S(=O)(=O)N3CC(C)CC(C)C3)cc21 (stereo not given) -32.8%
CC(C)c1ccc(/C=C2\SC(N3CCCC3)=NC2=O)cc1 -38.2%
Cc1ccc(-c2nn(CCC#N)cc2C=C(C#N)C#N)cc1 -39.1%
NC(=O)CSc1nc(C23CC4CC(CC(C4)C2)C3)nc2ccccc12 -45.8%
COc1ccc2c(COC(=O)[C@H](C)NS(=O)(=O)c3ccccc3F)cc(=O)oc2c1 -30.4%
O=C(Nc1cccc([N+](=O)[O-])c1)c1cc2ccccc2cc1O -33.9%
O=C(CN(c1ccc(F)cc1)S(=O)(=O)c1ccc2c(c1)OCCO2)NCc1ccncc1 -43.1%
Cc1ccc(C(=O)N2CCN(CCNC(=O)C(=O)Nc3ccc(Cl)cc3)CC2)cc1 -38.6%
COc1ccc(OC)c2c1C(=O)CC2C (stereo not given) -35.3%
C[C@H](CO)N1C[C@H](C)[C@@H](CN(C)C(=O)Nc2ccc(C(F)(F)F)cc2)Oc2ccc(NC(=O)Nc3ccccc3)cc2C1=O -40.2%
CC(C)CCn1c(=O)c2c(nc3n2CCCN3Cc2ccccc2)n(C)c1=O -48.8%

Activity change, inactive:
Cc1ncc([N+](=O)[O-])n1S(=O)(=O)c1cc(Br)ccc1Br 34%
CCOc1ccc(N2C(=O)CC(Cc3cc(C)cc(C)c3)C2=O)cc1 (stereo not given) -6.12%
CCN(CC)C(=O)c1sc(NC(=O)c2cc(-c3ccc(C)s3)nc3ccccc23)c(C(=O)OC)c1C -3.13%
CC1CC(C)CN(C2CCCCC2NS(=O)(=O)c2ccc(Cl)cc2)C1 (stereo not given) 45.4%
O=C(O)c1cc(-c2ccc(/C=C3/SC(=S)N(Cc4ccccc4)C3=O)o2)ccc1Cl 0%
CCOc1ccc(CCN2C(=O)C(=O)N([C@@H](Cc3ccc(O)cc3)CN3CCC[C@H]3CN3C(=O)C(=O)NC[C@@H]3Cc3ccc(O)cc3)C[C@@H]2Cc2ccccc2)cc1 0%
CCc1cn(C2CC(O)C(CO)O2)c(=O)[nH]c1=O (stereo not given) 33.4%
O=C(Nc1ccc(Cn2cccn2)cc1)c1ccc(COc2ccc(Br)cc2)cc1 13.1%
O=C(/C=C/c1cccc(Cl)c1)OCC(=O)c1ccc[nH]1 11.9%
CCOc1cc(CN2CCN(c3ncccn3)CC2)ccc1OC -0.378%
CC(=O)NCCNC(=O)CCNC(=O)c1ccc(Cl)cc1 -16%
COc1cc(-c2noc(CCCC(=O)NCc3ccccc3)n2)cc(OC)c1OC 12.2%
COC(=O)c1cc(Sc2cccc(Cl)c2Cl)ccn1 -22.9%
CSc1ncc(CN2CCCC(C(=O)c3ccc(C(C)(C)C)cc3)C2)cn1 (stereo not given) 20.9%
O=C(CN(c1ccccc1)S(=O)(=O)c1ccc(F)cc1)NC1CCCCCC1 9.6%
CCC(=O)c1ccc(OCC(O)CNCc2ccc(F)cc2)cc1 (stereo not given) -11.5%
COc1ccc(NC(=O)CCNS(=O)(=O)c2cc(Br)cnc2N)cc1OC 24.7%
CCOC(=O)c1sc(NC(=O)c2cc3ccccc3o2)nc1C -14%
COC(=O)c1c(-c2ccc(OC)cc2)sc2cc3c(cc12)OCO3 42%

Activity change, active:
Cn1c(C(=O)Nc2ccc3c(c2)OCCO3)cc2c(=O)n(C)c3ccccc3c21 -68.6%
CCOC(=O)Cn1nc(NC(=O)c2ccc(C(=O)OC)cc2)cc1C -96.4%
CS(=O)(=O)c1ccc2nc(NC(=O)CCS(=O)(=O)c3ccccc3)sc2c1 -92.8%
O=C(c1ccco1)N1c2ccccc2Sc2ccccc21 -50.2%
CC(C)(C)c1ccc(C(=O)O/N=C(\N)c2ccccn2)cc1 -64.9%
Cc1ccc2c(c1)c1nc3ccccc3nc1n2CCN1CCOCC1 -58.3%
CCn1c(=O)c2cc(C(=O)N(C)c3cc(C)ccc3OC)sc2c2ccccc21 -84.5%
CC1=CC(C)(C)Nc2ccc(OC(=O)C(Cc3ccccc3)N3C(=O)C4CCCCC4C3=O)cc21 (stereo not given) -94.7%
CCCCNC(=O)Nc1nc2ccccc2s1 -78%
CCN1/C(=C/C(=S)Nc2ccccc2)Sc2ccccc21 -101%
Cc1cc(Cl)ccc1OC(C)C(=O)Nc1ccccc1N1CCOCC1 (stereo not given) -58.3%
